Assay results: publication PMC4860835
No constants are given. Whether binding was seen depends on the method and setting. Binding seen in cells or lysates may run through a third protein. Some binding calls cover weakened binding; strength is not graded here. For some of these results: Sequences can lack the tags named with a protein.

B1: GST-tagged EIAV GAG protein p9, P69732 436-486 (protein)
chain: PIQQKSQHNKSVVQETPQTQNLYPDLSEIKKEYNVKEKDQVEDLNLDSLWE
B2: CHMP4B (endogenous, HEK293 cells) (protein, UniProt Q9H444 1-224)
chain: MSVFGKLFGAGGGKAGKGGPTPQEAIQRLRDTEEMLSKKQEFLEKKIEQELTAAKKHGTKNKRAALQALKRKKRYEKQLAQIDGTLSTIEFQREALENANTNTEVLKNMGYAAKAMKAAHDNMDIDKVDELMQDIADQQELAEEISTAISKPVGFGEEFDEDELMAELEELEQEELDKNLLEISGPETVPLPNVPSIALPSKPAKKKEEEDDDMKELENWAGSM
B3: GST-tagged HIV GAG protein p6, P04591 449-500 (protein)
chain: LQSRPEPTAPPEESFRSGVETTTPPQKQEPIDKELYPLTSLRSLFGNDPSSQ

Assays:
[1] = target: T1, ALIX (endogenous, HEK293 cells) (human (endogenous in HEK293)), Q8WUM4; test: co-IP; 1A3 anti-ALIX immunoprecipitation from HEK293 cytosol mixed with purified GST-p6 or GST-p9, incubated with GST-ALG-2 plus CaCl2 for 30 min, then 30 min with or without EGTA; only the binder purified; conditions: remark: other sources report otherwise
T1 chain: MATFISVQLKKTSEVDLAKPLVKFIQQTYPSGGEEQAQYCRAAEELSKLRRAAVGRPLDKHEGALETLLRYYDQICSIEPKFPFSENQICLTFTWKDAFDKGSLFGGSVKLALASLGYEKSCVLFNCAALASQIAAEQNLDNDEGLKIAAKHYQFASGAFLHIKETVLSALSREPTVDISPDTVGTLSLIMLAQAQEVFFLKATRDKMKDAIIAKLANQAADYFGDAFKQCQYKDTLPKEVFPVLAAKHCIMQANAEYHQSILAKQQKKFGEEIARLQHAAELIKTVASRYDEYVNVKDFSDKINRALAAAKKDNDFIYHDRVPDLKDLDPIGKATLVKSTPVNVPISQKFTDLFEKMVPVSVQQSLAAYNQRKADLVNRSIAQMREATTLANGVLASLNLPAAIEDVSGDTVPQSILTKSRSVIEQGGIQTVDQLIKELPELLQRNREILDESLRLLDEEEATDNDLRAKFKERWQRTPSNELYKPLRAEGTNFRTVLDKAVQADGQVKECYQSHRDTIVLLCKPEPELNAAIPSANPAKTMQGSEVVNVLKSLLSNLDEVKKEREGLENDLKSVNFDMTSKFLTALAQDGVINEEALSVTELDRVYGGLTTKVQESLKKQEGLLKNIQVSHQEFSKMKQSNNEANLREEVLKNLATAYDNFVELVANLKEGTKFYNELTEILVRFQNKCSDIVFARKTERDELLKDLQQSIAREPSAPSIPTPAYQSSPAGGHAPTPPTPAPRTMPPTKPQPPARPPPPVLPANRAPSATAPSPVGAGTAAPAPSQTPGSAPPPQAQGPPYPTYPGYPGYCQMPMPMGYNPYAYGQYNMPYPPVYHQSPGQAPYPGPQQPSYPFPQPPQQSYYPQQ

[2] = target: ALIX (endogenous, HEK293 cells) (human (endogenous in HEK293)) (UniProt Q8WUM4); test: co-IP; 3A9 anti-ALIX immunoprecipitation from pooled membrane (M) fractions of flotation centrifugation, 0.1% Triton X-100; HEK293 cells expressing FLAG-ALG-2 and treated with A23187 (Figure 4c) or serum-starved or EGF-stimulated (Figure 4d)
[3] = target: ALIX (endogenous, HEK293 cells) (human (endogenous in HEK293)) (UniProt Q8WUM4); test: co-IP; 3A9 anti-ALIX immunoprecipitation from pooled soluble (S) fractions of flotation centrifugation, 0.1% Triton X-100; HEK293 cells expressing FLAG-ALG-2 and treated with A23187 (Figure 4c) or serum-starved or EGF-stimulated (Figure 4d)

Row | Binder | binding [1] | binding [2] | binding [3]
1 | B1 | binds |  | 
2 | B2 |  | binds | no binding (condition: in the soluble (S) fraction)
3 | B3 | binds |  | 
